# From the supplement of paper PMC12632987
# Whole data set: some 1,800 sequences, median “median log2 fold change of GCK-ALFA target abundance (FLAG IP / Myc IP barcode read proportion)” near 0.14, cut for the lowest 2% near -0.84. Some of the results follow.
# T1: TRAF2, Q12933
# T1 chain: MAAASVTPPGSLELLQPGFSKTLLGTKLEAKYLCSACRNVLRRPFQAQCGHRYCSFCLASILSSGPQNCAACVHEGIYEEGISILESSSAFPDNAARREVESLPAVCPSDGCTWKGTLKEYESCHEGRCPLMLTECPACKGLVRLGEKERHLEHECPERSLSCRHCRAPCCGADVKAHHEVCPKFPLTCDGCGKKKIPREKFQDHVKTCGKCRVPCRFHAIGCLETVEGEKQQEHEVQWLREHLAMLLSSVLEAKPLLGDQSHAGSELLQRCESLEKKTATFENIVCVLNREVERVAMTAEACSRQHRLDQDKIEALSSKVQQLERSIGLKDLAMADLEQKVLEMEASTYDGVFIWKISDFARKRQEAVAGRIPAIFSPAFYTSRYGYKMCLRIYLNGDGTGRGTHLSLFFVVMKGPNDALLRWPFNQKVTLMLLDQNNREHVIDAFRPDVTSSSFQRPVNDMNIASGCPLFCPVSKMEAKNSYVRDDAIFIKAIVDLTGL
# B1: traf2_out_13_95_1097 (protein)
# chain: SREVAERIMEIADRMLDEVLAILEELLAKAKAAGKLVEEVTEALRLAETRSINEAIHLLRELAKEHPEFAAEYEAAIARIEELRRRAGREVARILREEEE
# B2: traf2_out_14_149_1264 (protein)
# chain: SKVEEVAEEILRLLKEVLEAAEEYIRTGTEEARERLFKLIKEAAEKMRELGEEIGVYFSSVSRLEHLASQRDLPPEELLARLKEILERAEVTAEFLKKEA
# B3: traf2_out_17_162_1615 (protein)
# chain: MSIEEILKELEEELERLEKELEELEKKLEKIDELSEEELTDLLVEASEARRKALEAIEKLKELKGEIDEEVYERLLKRFEEIAERFQRIANKFYEKLLEK
# B4: traf2_out_20_3_2237 (protein)
# chain: EELKKKLEEELEKAEKLLKKIEPKLDPKTAAKLKELLKKAKEYLEKDYTEALVYLSEAKAAALAAAEAARAAGDEETAALLEELADALNKAMHYAYLIIE
# B5: traf2_out_13_95_1203 (protein)
# chain: EEEKTEKIREVTNAIADKLLDFADKTAEEVEKKTGNEEYKKKVLKALNGSGINAAIEVLRELAKEDPEHKEIYLEAAEKLEEKRRQAGKEVAKKLKEIEE
# B6: traf2_out_17_162_1637 (protein)
# chain: AAIEATLAALKAELEELKKEKKELEEKAKKIETLSKEELSDLIVEASEVIRRARQLIQRLDALKDQIDPETYAELKAEAEEIIEEAQRIAQKFLDAYEAK
# B7: traf2_out_6_156_2383 (protein)
# chain: EKEKILEETKKKIEEYIKELSKAPESKKIKYINKIVGTVYKGLLKLRELGASLEELKEFVEEIKEYINKELEKYNIDESTKNLILAGINAVGEVALREAE
# B8: traf2_out_20_3_2119 (protein)
# chain: KELEEELKKELEEAKKLLKEAAKLADKETAKVLKELEKKLEKSEKLSYSDRLVVVSEIRRTVLLLREEAKAKGKKELAKVLDEAADKLNKAAGLLMKIIE
# B9: traf2_out_17_162_1515 (protein)
# chain: SALEEELAKLEKELKKIEKELKELKEKLKDLDKMSKEELTDLLVEASEARRRALELAERLEELKPEIGEERAGKLIAEARKLAEELQKIANKIYKKLEEK
# B10: traf2_out_17_178_1674 (protein)
# chain: DKAAKRAEISALTDELIDLTEDTGTKLLALAEAEGTLTPEELALLRAALRSSSANTLLAVAEKLAPKLKTKAEAEALLKDFKEKKKELSKKIAEAYKEYE
# B11: traf2_out_3_89_2308 (protein)
# chain: MEERKKTIEEMEKQMEAYVKGFEKSAKFVAKQMLADGMSLDTLRGVLEAAKSALLEVLRETAKERGLSEEEIEKLLKKAEEELNKVVDEVVADAAAKRAA
# B12: traf2_out_8_15_2547 (protein)
# chain: EEEEAAERRRAKILEATDGDPASILNLARGYVRGAEIALERMKKSGEKDLYYGVVEALARDARITLDLLRELDPSLAPEADALDARIDAILAEAEKLKAE
# B13: traf2_out_6_169_2481 (protein)
# chain: MEEERLEKEAERHLKTAEELYEIAETIYKQVKENNDLENLDNYILAMETLLNAMERHYELAIEKLKELGKEEEAEEVEKKREERKKKMEEMIEEIKKLKE
# B14: traf2_out_17_178_1685 (protein)
# chain: TKEEQRAKISELTDKLIDLTEETGTRLLARARAEGTLSPEELAALEAARRAGSNRTFLALAERAAPRLRSAEEAAALLAEFKERARKLEKEIAAAYEKYE
# B15: traf2_out_11_169_859 (protein)
# chain: KEEEFNRKLIDFALKVEDEAKKKLKEFALELAKKYGLNVEEVKKIFEENKNSSLSKIASNLIKYFKEKGKEEAAEEILKKHEELKEEINKKVSAKIKELE
# B16: traf2_out_20_3_2077 (protein)
# chain: EELLEKLKKEIDEALKLLKEAAKLADPETAKRLKALIEKLKASEELSIDDRLVVISEVRREVRRLAEEARARGDEELAKVLEEAADKLNKAAQLAYKILQ
# B17: traf2_out_17_162_1620 (protein)
# chain: MSIEEELEELEEELEELEKKLKELEEKLKNIDKLSKEELTDLLVEASEARRRALEAIERLDELKGEIDPETYEELKARFTELAEKFQKIANKLYKKLLEL
# B18: traf2_out_20_3_2247 (protein)
# chain: EELREKAKEELEKIKELLKKAAPLLPKEDAAKAEKLLKEAEKAFETDLTDALVYVSELRRLALERAQAALAAGDEETAKLLKELAEAAQRLAQYLYKLIE
# B19: traf2_out_18_117_1795 (protein)
# chain: SEREEIIEELEELAERLGKAASELGKAVLDNWEKLTPEEKSEAMDVLADLSAVRRRAQELIHKIKTENIPVEEARKELEELKKEAEAALAAAEAKIARIK
# B20: traf2_out_14_166_1275 (protein)
# chain: MSPEEIERIRKIVDELEPLTDAAVARLEAILAANADKLTPEQLARVRALLDLARRNIGSSAINAIREIAAIFAAAGLAEAAAAARALADELEAKLKELNK
# B21: traf2_out_13_95_1058 (protein)
# chain: SRELAEKINELADEAEEEILAILDEAAEELADDPEAVAVLDEARRLALTRGWTAALALLREAAAARPEHRDAFLATIERIEEVRRRLGKKVAELIKKEKE
# B22: traf2_out_11_169_835 (protein)
# chain: EEAAKNRAITDFALELNDEGKEKLREFARKLAKEAGLDVAEVDKIFEANKGKSLSAIAGALIAYFKSQGKEDVAKAVEEKYEELKEEINKKATAFIKSLE
# B23: traf2_out_16_104_1400 (protein)
# chain: EAAKQAEFEAIIAELEAIAEELQKIANEIYKLYEKADPEKKVELSDLLVEASEARRFALEAAERARRALEEGGDLEEARKALKEAREKFERVKKRVEELK
# B24: traf2_out_18_157_1817 (protein)
# chain: SHEEELLELAKKAQEVVDLGDKLVEESEGKSLEEIEKLLLETVEEMVKLLESVPKETRYHILTSTVRRTVEKLKEKRGISEEEAKELYEKALKKIEELLK
# B25: traf2_out_18_3_1896 (protein)
# chain: SSEELKEISEKIDEIIDEVTAKAREVLDRLAAEHPEVAAEVDALRADLEAGAGPFGILEALAELAKKAGDEELAKEIEEFLKEKKKELQELVDKYLELRK
# B26: traf2_out_18_167_1855 (protein)
# chain: EEELKKKLEEATDELVKLSEVKRLARTALQLLETDPAAFPAAKAALIAALRAHGELAHLADRLEAAPPEEQPAVLEEIVEEAQRLANEKYKEIEELRKKL
# B27: traf2_out_15_48_1346 (protein)
# chain: DIEKEQKIASEIADDSDKLKDKVAKELEELQKKANPEEAAILDELIAAIRSGASLRTVRGLLLQAQPKFSPETAAKLKALAEEIDELIRENSKRYNEVLK
# B28: traf2_out_16_171_1435 (protein)
# chain: SMEEREKELKEEIEEDAERLIERMETAVEMTPLISKETGLSVEQIAKGFRSTMTDRIEALRKHYLEKAKDMSEEVKKFIEEKFEEVEKALEKAVKEILEK
# B29: traf2_out_13_95_1084 (protein)
# chain: SEETNKKIMEIADEMLDKSLKILTELLEKVKDDPEMKKKVEEAKYLAEHKGINAAIHLLEELSKENEEYKELLDEAIEKLKKLKREAGRKVAELLKEEEE
# Molecular target: T1, TRAF2, Q12933
# Experiment: median log2 fold change of GCK-ALFA target abundance (FLAG IP / Myc IP barcode read proportion) (log2 ratio); each designed protein is fused to an ALFA-tag nanobody in HEK293 cells to bring the named protein to FLAG-tagged glucokinase (GCK); Myc marks an untargeted standard; higher = target protein stabilised (more abundant)
# Conditions: target protein: 3xFLAG-MCP-GCK-ALFA reporter; HEK293 landing pad (RPLP)
# How it was run: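 The readout is target abundance, the per-binder median log2 ratio of FLAG to Myc barcode read proportions. It came from HEK293 landing-pad cells carrying a recombined ALFA-nanobody-fused binder library, induced with 2 μg mL^−1 doxycycline and transfected with a plasmid for a FLAG-tagged target and a Myc-tagged standard. After 48 h, lysates were immunoprecipitated with anti-FLAG and anti-Myc, and circular RNA barcodes were reverse transcribed, amplified and sequenced. Each barcode needed a proportion of at least 10^−7 in both replicates and each binder at least 3 barcodes per replicate, a pseudocount of 10^−6 was added, and the replicates were pooled.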
row,Binder,median log2 fold change
1,B1,-0.695
2,B2,0.203
3,B3,0.252
4,B4,0.187
5,B5,-0.0161
6,B6,0.269
7,B7,-0.126
8,B8,-0.0522
9,B9,0.222
10,B10,0.0887
11,B11,-0.103
12,B12,-0.173
13,B13,0.245
14,B14,0.171
15,B15,0.148
16,B16,0.162
17,B17,-0.461
18,B18,0.336
19,B19,0.171
20,B20,0.268
21,B21,-0.24
22,B22,0.267
23,B23,0.165
24,B24,0.178
25,B25,-0.17
26,B26,0.405
27,B27,0.203
28,B28,0.26
29,B29,0.0732
